Here are results for one protein from article PMC8592882, “Naturally occurring cancer-associated mutations disrupt oligomerization and activity of protein arginine methyltransferase 1 (PRMT1)” (The Journal of Biological Chemistry, 2021).

The data set concerns the molecule itself. The experiment in a line: AUC; sedimentation velocity, 3 uM protein, 50 mM sodium phosphate, 2 mM EDTA, pH 7.6, 2 mM DTT added to appropriate tubes, 20 C, 40,000 rpm, absorbance at 280 nm, c(s) analysis in Sedfit.

B1: wild-type R. norvegicus PRMT1 (rPRMT1) (enzyme)
chain: not shown
notes: R. norvegicus protein arginine methyltransferase 1, splice variant PRMT1V1 (rPRMT1); pET28b vector coding for a His(6) tag with thrombin and TEV cleavage sites; Printed monomer mass 43.5 kDa; an anti-His antibody detects the protein on native PAGE blots; also called WT PRMT1; WT rPRMT1; source: E. coli BL21 DE3, purified (HisTrap)
A word on the stoichiometry N: it is a count of units in the complex or per binding partner. In the case of B1, the “stoichiometry N” value worked out at 4.
